{
  "source": "PubChem BioAssay AID1030",
  "about": "(National Center for Advancing Translational Sciences (NCATS), 2008)",
  "note": "Values joined by “and” are separate entries in the source; they are usually repeats but may differ in a detail not shown here. Equal values may be shown once. The campaign covered roughly 220,000 compounds. About 16,000 (7.3%) were called active. The inconclusive results got no clear call from the source; some entries with a clear call stand among them for comparison. Calls follow the shape of the dose curve; as a rule, active = well fitted inhibition curve with a large enough effect (not every such curve was filed as active); inconclusive = small, poorly fitted or top-dose-only effect, or another doubt; inactive = no such curve, though single readings can be large or run the other way. Potencies of inconclusive entries are left out as doubtful fits. More than one record can exist for a structure, and the calls need not agree. Potency is read from the fitted curve at half-maximal effect; tags tell the direction and shape of the fitted curve.",
  "data": [
    {"target": "Aldehyde dehydrogenase 1A1 (Homo sapiens) (UniProt P00352)", "sequence (P00352 whole entry, looked up)": "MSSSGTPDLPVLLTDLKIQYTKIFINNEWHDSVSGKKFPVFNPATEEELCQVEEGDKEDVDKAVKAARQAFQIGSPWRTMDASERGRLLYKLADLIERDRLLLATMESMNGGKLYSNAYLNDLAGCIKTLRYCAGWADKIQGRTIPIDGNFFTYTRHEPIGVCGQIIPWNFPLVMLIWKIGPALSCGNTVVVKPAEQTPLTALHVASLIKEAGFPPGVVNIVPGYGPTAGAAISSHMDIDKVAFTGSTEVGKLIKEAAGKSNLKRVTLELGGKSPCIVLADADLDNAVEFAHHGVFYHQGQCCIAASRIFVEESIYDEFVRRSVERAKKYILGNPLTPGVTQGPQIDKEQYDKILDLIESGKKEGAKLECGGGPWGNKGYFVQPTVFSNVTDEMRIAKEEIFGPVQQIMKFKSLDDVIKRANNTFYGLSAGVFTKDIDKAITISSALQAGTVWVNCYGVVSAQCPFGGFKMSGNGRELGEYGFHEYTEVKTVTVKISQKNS", "test": "qHTS Assay for Inhibitors of Aldehyde Dehydrogenase 1 (ALDH1A1);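 as to activity, negative = inhibition: plate controls were no enzyme wells and a reference inhibitor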", "conditions": "Purified ALDH1A1, NADH fluorescence, propionaldehyde substrate; series mostly up to 75.3 µM", "values": [
      {"smiles": "O=c1c(N2CCOCC2)nsnc1N1CCOCC1", "Potency": "active: 25.1 µM"},
      {"smiles": "Cc1ccc(-n2nnnc2SCC(=O)Nc2cccc(NC(=O)c3ccco3)c2)cc1C", "Potency": "inconclusive [inhibitor, single point]"},
      {"smiles": "Cc1cccc(OCC(=O)NN2C(=O)C3C4C=CC(O4)C3C2=O)c1", "note": "(stereo unspecified)", "Potency": "active: 3.16 µM"},
      {"smiles": "O=C(Nc1ccc(Cl)cc1C(=O)O)c1ccc2c(c1)C(=O)N(Cc1ccco1)C2=O", "Potency": "active: 3.77 µM"},
      {"smiles": "Cc1cccc(OCc2nnc(SCC(=O)N3CCc4ccccc43)n2C)c1", "Potency": "inconclusive [inhibitor, single point]"},
      {"smiles": "Cc1cccc(-c2nnc(SCC(=O)Nc3nc4c(s3)CCCC4)n2C)c1", "Potency": "inconclusive [inhibitor, single point]"},
      {"smiles": "Cc1cccc(NC(=O)c2cccc(C(F)(F)F)c2)c1", "Potency": "inactive"},
      {"smiles": "CCCOC(=O)c1ccc(Oc2c(-c3ccc(OCC)cc3O)n[nH]c2C)cc1", "Potency": "inconclusive [inhibitor, single point]"},
      {"smiles": "COC(=O)c1c(C)[nH]c(C)c1-c1ccc(C)cc1", "Potency": "inconclusive [inhibitor, single point]"},
      {"smiles": "O=C(Nn1cnc2ccccc2c1=O)C1CCCCC1", "Potency": "inactive"},
      {"smiles": "CNc1nc(-c2ccoc2)nc2ccccc12", "Potency": "inconclusive [inhibitor, single point]"},
      {"smiles": "O=C1CCCN1c1ccc(S(=O)(=O)Oc2cccc(Cl)c2)cc1[N+](=O)[O-]", "Potency": "inactive"},
      {"smiles": "Cc1ccccc1S(=O)(=O)Cc1ccc(C(=O)NCc2cccnc2)o1", "Potency": "active: 14.1 µM"},
      {"smiles": "Cn1nnnc1Sc1ccc([N+](=O)[O-])cc1Cl", "Potency": "inactive"},
      {"smiles": "CN(C)S(=O)(=O)c1ccc(NS(=O)(=O)/C=C/c2ccccc2)cc1", "Potency": "inconclusive [inhibitor, partial curve]"},
      {"smiles": "O=C(CSc1nnc(-c2cccc(S(=O)(=O)N3CCCCC3)c2)o1)c1ccc[nH]1", "Potency": "inconclusive [inhibitor, single point]"},
      {"smiles": "COCCN1Cc2cccc(C(=O)Nc3ccc4c(c3)OCCO4)c2C1=O", "Potency": "inconclusive [inhibitor, single point]"},
      {"smiles": "COc1c(F)c(F)c(C(=O)Nc2ccccc2N2CCN(C(=O)C(C)C)CC2)c(F)c1F", "Potency": "inconclusive [inhibitor, single point]"},
      {"smiles": "O=C(NCCCN1CCOCC1)c1cc(-c2ccc(Br)cc2)on1", "Potency": "inconclusive [inhibitor, single point]"},
      {"smiles": "c1ccc2cc(-c3cc4ccccn4c3)ccc2c1", "Potency": "inconclusive [inhibitor, single point]"},
      {"smiles": "O=C(NC1CCCCC1)C(c1ccc2ncccc2c1)N(Cc1ccc(F)cc1)C(=O)c1ccc2c(c1)OCCO2", "note": "(stereo unspecified)", "Potency": "inconclusive [inhibitor, single point]"},
      {"smiles": "OC(COc1ccc(CN2CCSCC2)cc1)CN1CCCCC1", "note": "(stereo unspecified)", "Potency": "inactive"},
      {"smiles": "O=S(=O)(Cc1ccccc1)Nc1ccc(S(=O)(=O)NCC2CCCO2)cc1", "note": "(stereo unspecified)", "Potency": "inconclusive [inhibitor, partial curve]"},
      {"smiles": "CSc1ccccc1C(=O)OCC(=O)NC1CCS(=O)(=O)C1", "note": "(stereo unspecified)", "Potency": "inactive"},
      {"smiles": "COc1ccc(OC)c(C2=NOC(C(=O)N3CCCc4ccccc43)C2)c1", "note": "(stereo unspecified)", "Potency": "active: 11.2 µM"},
      {"smiles": "COc1ccccc1NC(=O)CCSCCC(=O)Nc1ccccc1OC", "Potency": "active: 14.1 µM"},
      {"smiles": "CS(=O)(=O)C1=NSC2=NC(=O)/C(=C\\c3cccn3-c3ccccc3Cl)C(=N)N21", "Potency": "inconclusive [inhibitor, single point]"},
      {"smiles": "CCCCN(CC)C(=O)Cn1c(=O)sc2ccccc21", "Potency": "inactive"},
      {"smiles": "COc1cc(OC)cc(C(=O)NCC(=O)OCC(=O)N2CCc3ccccc32)c1", "Potency": "inactive"},
      {"smiles": "Cc1cc(C(N)=O)c2cc(Br)ccc2n1", "Potency": "inactive"},
      {"smiles": "Cc1ccc2c(c1)C1CN(C)CCC1N2C(=O)c1ccccc1NS(=O)(=O)c1cccc(C(F)(F)F)c1", "note": "(stereo unspecified)", "Potency": "inactive"},
      {"smiles": "O=C1[C@@H]2[C@H]3[C@H](O)[C@H](O)C/C(=N/OCc4ccccc4)[C@H]3CC[C@H]2C(=O)N1c1ccc(F)cc1F", "activity, negative = inhibition": "inactive: 11.4% [at 13.5 µM]"},
      {"smiles": "Cc1cc(NC(=O)c2cccs2)n(-c2nc3ccccc3[nH]2)n1", "Potency": "inactive"},
      {"smiles": "Cc1nccc(-c2ccc(-n3c(C)ccc3C)cc2)n1", "Potency": "inactive"},
      {"smiles": "CC1=C(/C=C/C(C)=C/C=C/C(C)=C/C(=O)Nc2ccc(O)cc2)C(C)(C)CCC1", "Potency": "active: 17.8 µM and active: 20 µM"},
      {"smiles": "CCn1c2ccc(C)cc2c2nnc(SCCN3CCOCC3)nc21", "Potency": "active: 25.1 µM"},
      {"smiles": "CNC(=O)c1cc(C(=O)c2ccccc2C(F)(F)F)c[nH]1", "Potency": "inactive"},
      {"smiles": "CN(C)c1cc[n+](CC(=O)Nc2ccc([N+](=O)[O-])cc2Cl)cc1", "Potency": "inactive"},
      {"smiles": "Cn1c(C(=O)O)c(CC(=O)Nc2ccccc2F)c2ccccc21", "Potency": "inactive"},
      {"smiles": "CCN1C(=O)[C@H]2[C@H]3[C@H](O)[C@H](O)C/C(=N/OC[C@@H](O)[C@H]4O[C@H]5OC(C)(C)O[C@H]5[C@@H]4O)[C@@H]3CC[C@@H]2C1=O", "activity, negative = inhibition": "inactive: 14.1% [at 13.5 µM]"},
      {"smiles": "c1ccc(C2Nc3ccccc3-c3nc4ccccc4n32)cc1", "note": "(stereo unspecified)", "Potency": "inconclusive [inhibitor, partial curve]"},
      {"smiles": "Cc1c(/C(O)=C2\\C(=O)C(=O)N(CCN(C)C)C2c2ccco2)cnn1-c1ccccc1", "note": "(stereo unspecified)", "Potency": "inconclusive [inhibitor, single point]"},
      {"smiles": "Nc1nc2nccc(-c3ccc(Cl)cc3)n2n1", "Potency": "inconclusive [inhibitor, partial curve]"},
      {"smiles": "Cc1ccc2nc3nc(NCC4CCCO4)c(C(=O)NC4CCCCC4)cc3c(=O)n2c1", "note": "(stereo unspecified)", "Potency": "inconclusive [inhibitor, partial curve]"},
      {"smiles": "C/C(N)=C(/C#N)C(=O)CSc1nnnn1-c1ccc(C)cc1C", "Potency": "inconclusive [inhibitor, single point]"},
      {"smiles": "Cc1cc(C(F)F)n2ncc(C(=O)NC3CCCCCC3)c2n1", "Potency": "active: 12.6 µM"},
      {"smiles": "CC1CCc2nc3ccccc3c(C(=O)OCC(=O)N3CCc4ccccc43)c2C1", "note": "(stereo unspecified)", "Potency": "inconclusive [inhibitor, partial curve, poor fit]"},
      {"smiles": "Cc1cc(O)c(Oc2cc(C)cc(O)c2O)c(O)c1", "Potency": "active: 8.91 µM"},
      {"smiles": "CCOCCCN1C(=O)CN(C2CCC(C)CC2)C(=O)C1c1ccc(C)cc1", "note": "(stereo unspecified)", "Potency": "inactive"},
      {"smiles": "O=C(Nc1cccc(F)c1)c1ccccc1", "Potency": "inactive"},
      {"smiles": "CC(=O)c1cccc(NC(=O)N2CCCC2C(=O)Nc2c(C)cccc2C)c1", "note": "(stereo unspecified)", "Potency": "active: 25.1 µM"},
      {"smiles": "CCNC(=S)NNC(=O)c1cc(-c2cccc(OC)c2)nc2ccccc12", "Potency": "inactive"},
      {"smiles": "Cc1ccc2nc(-c3ccc(SCC(=O)Nc4ccc5c(c4)OCCO5)nc3)[nH]c2c1", "Potency": "inconclusive [inhibitor, single point]"},
      {"smiles": "Fc1ccccc1COc1ccc(/C=N/NC(=S)NCc2ccccc2)cc1", "Potency": "inactive"},
      {"smiles": "CCOC(=O)c1c(C)[nH]c(C(=O)COC(=O)/C=C/c2ccc(O)c(OC)c2)c1C", "Potency": "inconclusive [inhibitor, single point]"},
      {"smiles": "COc1ccc(C(=O)N2CCN(c3ccc([N+](=O)[O-])c(NCCc4ccc(OC)c(OC)c4)c3)CC2)cc1", "Potency": "inconclusive [inhibitor, full curve]"},
      {"smiles": "C=CCN(CC=C)S(=O)(=O)c1ccc(C(=O)Nc2sc3c(c2C(N)=O)CCCCC3)cc1", "Potency": "active: 3.16 µM"},
      {"smiles": "Cc1cc(C(=O)OCC(=O)Nc2sc3c(c2C#N)CCC(C)C3)c2ccccc2n1", "note": "(stereo unspecified)", "Potency": "inconclusive [inhibitor, single point]"},
      {"smiles": "C=C(C)Cn1c(N2CCC(Cc3ccccc3)CC2)nc2c1c(=O)[nH]c(=O)n2C", "Potency": "inconclusive [inhibitor, single point]"},
      {"smiles": "CCOC(=O)c1cccc(NC(=O)CCc2nc(-c3ccccc3F)no2)c1", "Potency": "inconclusive [inhibitor, single point]"},
      {"smiles": "O=S(=O)(c1cccc2cccc(Cl)c12)N1CCCC1", "Potency": "inactive"},
      {"smiles": "CCOc1ccccc1NS(=O)(=O)c1c(C)noc1C", "Potency": "inconclusive [inhibitor, single point]"},
      {"smiles": "NCCc1ccn[nH]1", "Potency": "inactive"},
      {"smiles": "CCOC(=O)N=Nc1c(O)n(CC)c2ccccc12", "Potency": "inactive"},
      {"smiles": "CCOC(=O)c1c(C)oc2ccc(OCC(N)=O)cc12", "Potency": "inactive"},
      {"smiles": "NC(=O)c1c(NC(=O)C2CCCO2)sc2c1CCCCC2", "note": "(stereo unspecified)", "Potency": "active: 20 µM"},
      {"smiles": "CCOc1ccc(OCC)c(NC(=O)CN(C)S(=O)(=O)c2cccc3nsnc23)c1", "Potency": "inconclusive [inhibitor, single point]"},
      {"smiles": "Cn1cc(CN2CCc3c([nH]c4ccccc34)C2C(C)(C)C)cn1", "note": "(stereo unspecified)", "Potency": "inactive"},
      {"smiles": "COc1cc(NC(=O)c2cccs2)ccc1NC(=O)c1cc2ccccc2o1", "Potency": "inconclusive [inhibitor, single point]"},
      {"smiles": "C/C(=N\\NC(=S)NC1CCCCC1)c1cccc(Br)c1", "Potency": "inconclusive [inhibitor, partial curve]"},
      {"smiles": "COC(=O)c1cc2c(ccn2-c2ccc(F)cc2)n1C(C)C", "Potency": "inconclusive [inhibitor, single point]"},
      {"smiles": "Cc1cccc(C)c1NC(=O)COC(=O)CCC(=O)c1cccs1", "Potency": "inactive"},
      {"smiles": "O=C(c1ccccc1F)N1CCN(Cc2cccc(Cl)c2)CC1", "Potency": "inconclusive [inhibitor, single point]"},
      {"smiles": "CCCCCCCC#Cc1ccccc1/C=N/S(=O)C(C)(C)C", "note": "(stereo unspecified)", "activity, negative = inhibition": "inactive: 21.4% [at 13.5 µM]"},
      {"smiles": "CCOC(=O)C(C)N1N=C(/C=C/c2ccc(OC)cc2)CCC1=O", "note": "(stereo unspecified)", "Potency": "inactive"},
      {"smiles": "O=C(C1=C[C@H](c2csc3ccccc23)C[C@H](OCCCCO)O1)N1CCN(Cc2ccccc2)CC1", "Potency": "inconclusive [inhibitor, partial curve]"}
    ]}
  ]
}
